According to PubChem BioAssay AID1461 (National Center for Advancing Translational Sciences (NCATS), 2008):
Screen size: about 220,000 compounds; about 2,300 (1%) were called active. The shares of active, inactive and inconclusive entries below differ from those in the screen. Calls follow the shape of the dose curve; as a rule, active = well fitted inhibition curve with a large enough effect; inconclusive = small, poorly fitted or top-dose-only effect, or effect the other way; inactive = no such curve, though single readings can be large or run the other way. No potency is given beside an inconclusive call; the fits are too rough.

Biological target: Neuropeptide S receptor (Homo sapiens) (UniProt Q6W5P4)
Assay: qHTS Assay for Antagonists of the Neuropeptide S Receptor: cAMP Signal Transduction; also: nearly all actives have a fitted effect of over 50% in size
Settings: CHO-NPSR cells, cAMP TR-FRET, antagonist mode; series mostly up to 38.3 µM
Potency is read from the fitted curve at half-maximal effect; tags tell the direction and shape of the fitted curve.

Sequence of UniProt Q6W5P4 (Q6W5P4 whole entry, looked up): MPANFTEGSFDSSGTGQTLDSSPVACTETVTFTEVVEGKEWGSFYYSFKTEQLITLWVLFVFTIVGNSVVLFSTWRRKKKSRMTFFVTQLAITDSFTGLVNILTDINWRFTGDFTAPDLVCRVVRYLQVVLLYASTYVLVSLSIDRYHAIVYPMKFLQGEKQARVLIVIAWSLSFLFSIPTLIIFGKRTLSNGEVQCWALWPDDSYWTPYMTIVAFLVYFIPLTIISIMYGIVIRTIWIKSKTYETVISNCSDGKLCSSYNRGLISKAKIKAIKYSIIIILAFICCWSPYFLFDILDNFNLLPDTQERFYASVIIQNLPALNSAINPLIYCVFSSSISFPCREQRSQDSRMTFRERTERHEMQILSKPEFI

Structure (SMILES) | Potency
C=CCn1c(=N)c(C(=O)NCCCOC)cc2c(=O)n3cc(C)ccc3nc21 | inactive
Cc1ccc(NC(=S)N=Nc2c(O)n(C)c3ccc(S(=O)(=O)N4CCOCC4)cc23)cc1 | inactive
CC(=O)Oc1ccc(N2C(=O)C3C4C=CC(C5CC45)C3C2=O)cc1[N+](=O)[O-] (centres undefined) | inactive
O=C(Nc1ccc2c(c1)OCCO2)C1CCN(S(=O)(=O)c2ccc(Br)s2)CC1 | inconclusive [inhibitor, single point]
CN(CC(CC(=O)Nc1nncs1)c1ccccc1)S(=O)(=O)c1ccc(Br)cc1 (centres undefined) | inconclusive [inhibitor, full curve, poor fit]
COc1cc2c(cc1NC(=O)CSc1ccccn1)oc1ccccc12 | inconclusive [inhibitor, partial curve]
CC(c1ccccc1)C1C(C#N)=C(N)OC2=C1C(=O)CC(C)(C)C2 (centres undefined) | inconclusive [inhibitor, partial curve]
O=C(c1ccccc1)c1ccc(O)cc1O | inactive
CCOc1cc(CNC2CCCC2)cc(Cl)c1OCc1ccc(F)cc1 | inconclusive [inhibitor, single point]
CC(=O)N(C(C)=O)c1ncnc2c1c(-c1ccc(Cl)cc1)nn2C(C)(C)C | inconclusive [inhibitor, single point]
Fc1ccc(-n2c(Cn3nnc4ccccc43)n[nH]c2=S)cc1 | inactive
COc1ccc(S(=O)(=O)N2CCCC(C(=O)NCc3ccncc3)C2)cc1Cl (centres undefined) | inconclusive [inhibitor, single point]
c1ccc2c(c1)nc(N1CCOCC1)c1c3ccccc3[nH]c21 | inconclusive [inhibitor, partial curve, poor fit]
CC(C)CN(CC(C)C)S(=O)(=O)N1CCC(C(=O)NCCN2CCOCC2)CC1 | inactive
Cc1ccc(-n2ncc3c(=O)n(-c4ccc(C)c(C)c4)c(C)nc32)cc1 | inconclusive [inhibitor, single point]
O=C(NCCN1C(=O)S/C(=C\c2ccccc2)C1=O)c1cc(S(=O)(=O)N2CCOCC2)c(Cl)cc1Cl | inconclusive [inhibitor, single point]
Cc1cccc2nc(Cn3c(=O)n(CCCC(=O)NCc4ccco4)c(=O)c4ccccc43)cc(=O)n12 | inactive
Cc1ccccc1NS(=O)(=O)c1cc(C(=O)NCCSC2CCCCC2)ccc1C | inconclusive [inhibitor, partial curve]
CCn1nnnc1SCC(=O)Nc1ccc(OC)cc1 | inactive
CCCSc1nc(NCc2ccco2)c2c3c(sc2n1)COC(C)(C)C3 | inconclusive [inhibitor, partial curve]
Oc1ccc(/C=N/n2c3ccccc3c3ccccc32)cc1 | inactive
O=C(Nc1cc(Cl)cc(Cl)c1)c1coc(=O)c(Br)c1 | inconclusive [activator, partial curve]

Structure (SMILES) | Potency
COc1ccc(Br)cc1C(=O)Nc1cccc(NC(=O)c2ccco2)c1 | inconclusive [inhibitor, partial curve]
COc1ccc(S(=O)(=O)N2CN(Cc3ccco3)c3nc4ccccc4nc32)cc1 | inconclusive [inhibitor, partial curve, poor fit]
CCOC(=O)c1cnn(-c2ccc(Cl)cc2)c1C1CCN(C(=O)OC(C)(C)C)CC1 | inconclusive [inhibitor, single point]
O=C(N/N=C/c1cc(Br)ccc1O)C(=O)Nc1ccccc1OC(F)(F)C(F)F | inconclusive [inhibitor, partial curve]
c1ccc(N2CCN(c3nc(NCc4ccco4)c4ccccc4n3)CC2)cc1 | inconclusive [inhibitor, single point]
CCOc1cc(CNc2ccccc2)cc(Br)c1OCc1ccc(F)cc1 | inconclusive [inhibitor, single point]
O=C(OCc1ccc(Cl)cc1)c1ccccc1C(=O)c1ccccc1 | inconclusive [inhibitor, single point]
COc1ccc(/C=N/Nc2cc(N3CCCC3)nc(N3CCCC3)n2)cc1 | active: 12.6 µM
COc1ccc2c(c1)CCc1cn3nc(C)cc3nc1-2 | inactive
COc1ccc(-c2nnc3n(CCc4ccccc4)c(=O)c4ccccc4n23)c(OC)c1 | inconclusive [inhibitor, single point]
CCOC(=O)c1cnc2c(OC)cccc2c1N1CCN(c2ccc(OC)cc2)CC1 | inconclusive [inhibitor, single point]
Cc1cc(C)nc(S/C=C/C(=O)c2ccccc2F)n1 | inconclusive [activator, single point]
CCOC(=O)C1=C(c2ccccc2)OC(N)=C(C#N)C1C1CCCCC1 (centres undefined) | inconclusive [inhibitor, single point]
O=C(Nc1c(C(=O)O)[nH]c2ccccc12)NC1CCCCC1 | inconclusive [inhibitor, partial curve, poor fit]
Cc1ccc(CNC(=O)NC2CCCCC2)cc1 | inactive
CCCc1cc(-c2n[nH]c(C)c2-c2ccc(C(=O)OCC)o2)c(O)cc1O | inconclusive [inhibitor, single point]
CCOC(=O)c1c(NC(=O)CSc2nc(C)cc(C)c2C#N)sc(C(C)=O)c1C | inconclusive [inhibitor, single point]
CCc1nnc(NC(=O)c2cnccn2)s1 | inconclusive [inhibitor, full curve, poor fit]
O=C(CSc1cccc2cccnc12)Nc1ccc(S(=O)(=O)N2CCOCC2)cc1 | inconclusive [inhibitor, single point]
O=C(NCCN1CCCC1)c1ccccc1Cl | inactive
COc1cccc2cc(C(=O)NCc3ccco3)c(=Nc3ccc(C(=O)O)cc3)oc12 | inconclusive [inhibitor, partial curve]
Cc1ccc(NC(=O)C(=Cc2ccc(C(=O)O)cc2)C(=O)Nc2ccc(C)cc2C)c(C)c1 | inconclusive [inhibitor, full curve, poor fit]
